Measured values from PubChem BioAssay AID886 (National Center for Advancing Translational Sciences (NCATS), 2007).
In all, about 73,000 compounds went through this assay and about 2,500 (3.4%) were called active. The inconclusive results got no clear call from the source; some entries with a clear call stand among them for comparison. The call rests on the fitted dose curve; in most records, active means well fitted inhibition curve with a large enough effect; inconclusive means small, poorly fitted or top-dose-only effect; inactive means no such curve, though single readings can be large or run the other way. Potencies beside an inconclusive call are fits to weak or partial responses and may not hold up.

These compounds were tested against 3-hydroxyacyl-CoA dehydrogenase type-2 (Homo sapiens) (UniProt Q99714) (assay: qHTS Assay for Inhibitors of HADH2 (Hydroxyacyl-Coenzyme A Dehydrogenase, Type II)). Details: recombinant HADH2, NADH fluorescence, beta-hydroxybutyryl-CoA; series mostly up to 57.1 µM.
UniProt Q99714, sequence (Q99714 whole entry, looked up): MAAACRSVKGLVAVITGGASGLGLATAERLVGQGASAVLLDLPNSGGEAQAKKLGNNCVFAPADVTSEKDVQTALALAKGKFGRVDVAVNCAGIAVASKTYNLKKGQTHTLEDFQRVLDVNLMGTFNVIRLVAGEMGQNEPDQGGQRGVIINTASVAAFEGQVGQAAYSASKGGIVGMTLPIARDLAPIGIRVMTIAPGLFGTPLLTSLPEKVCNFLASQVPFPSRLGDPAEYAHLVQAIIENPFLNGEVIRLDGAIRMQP
UniProt Q99714, sequence (Q99714 whole entry, looked up): as above
Method in brief: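 Read-out: 360 nm excitation, 450 nm emission, kinetic over 4 min. Conditions: His-tagged human HADH2 20 nM, pH 9.0 Tris with Tween-20, 1 mM NAD+, 90 uM beta-hydroxybutyryl-CoA.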
Further: nearly all actives have a fitted effect of over 60% in size.
On the % scale 0 is the no-effect control and ±100 the full control effect; potency means the concentration at half of the fitted maximal effect; tags describe the fitted curve by direction and shape.

Row | Compound | Potency | activity change, negative = inhibition
1 | CC[C@H](CO)NC(=O)[C@H]1C=C2c3cccc4[nH]cc(c34)C[C@@H]2N(C)C1 | active: 15.8 µM | 
2 | NCCc1c[nH]c2ccc(C(N)=O)cc12 | inconclusive: 12.6 µM [inhibitor, partial curve] | 
3 | CCn1c(N)c(C(=O)NC)sc1=S | active: 0.501 µM | 
4 | [O-]/[N+](=N\O)c1ccccc1 | inconclusive: 25.1 µM [inhibitor, partial curve] | 
5 | NC[C@H](O)c1cc(O)c(O)cc1F | inconclusive: 2 µM [inhibitor, full curve] | 
6 | Cc1ccc(-n2nc(C)c3c2NC(=O)CSC3c2ccc3c(c2)OCO3)cc1 (stereo not drawn) | inconclusive: 20 µM [inhibitor, single point] | 
7 | O=C(O)CN1CCN(CC(=O)O)CC(=O)[O][Hg][O]C(=O)C1 | active: 2 µM | 
8 | CN(C)CP(=O)(O)CN(C)C=O | inactive | 
9 | O=c1ccc2[nH]cc(C3=CCNCC3)c2[nH]1 | active: 31.6 µM | 
10 | CCSc1cc(C2C(C#N)=C(N)Oc3n[nH]c(C)c32)c(C)o1 (stereo not drawn) | inconclusive: 20 µM [inhibitor, partial curve] | 
11 | O=C(CSc1ccccc1)N1CCC2(CC1)OCCO2 | active: 25.1 µM | 
12 | CC(=O)[O][Hg][c]1ccccc1 | active: 3.16 µM | 
13 | Cc1cc2c(C(C)C)c(O)c(O)c(C=O)c2c(O)c1-c1c(C)cc2c(C(C)C)c(O)c(O)c(C=O)c2c1O | active: 5.01 µM | 
14 | OC1(c2cccnc2)CC2CCC(C1)N2Cc1nnnn1Cc1ccccc1 (stereo not drawn) | inconclusive: 0.0631 µM [inhibitor, full curve, poor fit] | 
15 | CC1(C)N=C(N)N=C(N)N1c1cccc(C(=O)Nc2ccc(S(=O)(=O)F)cc2)c1 |  | inactive: 7.93% [at 11.4 µM]
16 | CCCCCCCCn1sccc1=O | active: 0.631 µM | 
17 | O=c1[nH]c(=O)n(Cc2ccccc2)c(O)c1C=Nc1ccc(CN2CCOCC2)cc1 | inconclusive: 39.8 µM [inhibitor, single point] | 
18 | CCCNC(=O)c1c(N)n(CC2CCCO2)c2nc3ccccc3nc12 (stereo not drawn) | active: 31.6 µM | 
19 | Oc1cc(Cl)cc(Cl)c1Cl | inconclusive: 31.6 µM [inhibitor, partial curve] | 
20 | O=C1NCN(c2ccccc2)C12CCNCC2 | inconclusive: 0.316 µM [inhibitor, single point] | 
21 | c1ccc2c(c1)c1cccc3ccc4cccc2c4c31 | active: 31.6 µM | 
22 | C[C@@H]1[C@H]2C=C[C@@H]1[C@@H](c1c3ccc(=O)c(O)c-3oc3c(O)c(O)ccc13)[C@@H]2C(=O)O | active: 0.794 µM | 
23 | C=CCN1CCc2cccc3c2[C@@H]1Cc1ccc(O)c(O)c1-3 | active: 0.316 µM | 
